Results reported in PubChem BioAssay AID894 (National Center for Advancing Translational Sciences (NCATS), 2007).
Among all 150,000 compounds or so, about 6,500 (4.3%) were called active. The inconclusive results got no clear call from the source; some entries with a clear call stand among them for comparison. Calls come from the whole dose curve; as a rule, active = well fitted inhibition curve with a large enough effect (not every such curve was filed as active); inconclusive = small, poorly fitted or top-dose-only effect, or another doubt; inactive = no such curve, though single readings can be large or run the other way. No potency is given beside an inconclusive call; the fits are too rough.

Target: 15-hydroxyprostaglandin dehydrogenase [NAD(+)] (Homo sapiens) (UniProt P15428)
Sequence of UniProt P15428 (P15428 whole entry, looked up): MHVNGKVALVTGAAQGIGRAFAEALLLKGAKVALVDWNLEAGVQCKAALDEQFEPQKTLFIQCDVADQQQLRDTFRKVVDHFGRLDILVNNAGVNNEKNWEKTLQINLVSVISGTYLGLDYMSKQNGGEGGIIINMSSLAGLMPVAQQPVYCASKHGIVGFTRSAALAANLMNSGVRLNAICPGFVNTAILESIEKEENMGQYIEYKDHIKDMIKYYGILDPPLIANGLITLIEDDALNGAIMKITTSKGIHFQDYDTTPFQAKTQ
Assay: qHTS Assay for Inhibitors of HPGD (15-Hydroxyprostaglandin Dehydrogenase)
Conditions: purified HPGD, NADH fluorescence kinetic, PGE2 substrate; activity change, negative = inhibition: stronger effect = lower value
How it was run: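 NADH formation kinetics: reaction with 30 uM PGE2 and 1 mM NAD+ (final), 20 nM enzyme, Tris-HCl pH 8 with Tween 20, after 15 min compound preincubation at room temperature. Fluorescence change, last versus first of five reads.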
% is set by controls: 0 for no effect and ±100 for the full control effect; potency is the fitted concentration of half-maximal effect; tags give direction and shape of the fitted curve.

Row | Structure (SMILES) | Potency | activity change, negative = inhibition
1 | O=C(O)c1cc2c(ccc3ccccc32)oc1=O | inconclusive [inhibitor, partial curve] | –
2 | c1ccc(Cn2nnc3c(N4CCCCCC4)ncnc32)cc1 | active: 31.6 µM | –
3 | CC(C)(C)N1C(=O)c2ccccc2NC(=O)N1Cc1ccccc1 | – | inactive: -2.25%
4 | CC(C)Oc1ccc(C(=O)NCc2ccco2)cc1 | active: 17.8 µM | –
5 | Cc1noc(C)c1S(=O)(=O)N1CCC(C(=O)N2CCC(C)CC2)CC1 | inconclusive [inhibitor, single point] | –
6 | CCCCc1ccc(/C=C2\C(=O)c3ccccc3C(O)=C2C(=O)OCC)cc1 | active: 8.91 µM | –
7 | O=C(CSc1ncccn1)N1CCN(Cc2ccccc2)CC1 | – | inactive: -3.88%
8 | CCn1c(C)c(CCC(=O)O)c(=O)n2nc(-c3ccccc3OC)cc12 | inconclusive [inhibitor, partial curve] | –
9 | COc1ccc(NC(=O)c2cc3c(Cl)nc4ccccc4c3s2)c(OC)c1 | – | inactive: -16.8%
10 | CCC(C)C(=O)Nc1cc([N+](=O)[O-])ccc1Cl (stereo not given) | – | inactive: -1.06%
11 | C/C(=N\Nc1cc(-c2ccccc2)nc(-c2ccccc2)n1)c1ccc(O)c(C)c1 | inconclusive [inhibitor, partial curve] | –
12 | Cc1ccc2c(c1)[nH]c1c(=O)n(CCCN3CCOCC3)cnc12 | inconclusive [inhibitor, partial curve] | –
13 | O=C(NCc1ccc2c(c1)OCO2)c1ccc(COc2cc(Cl)ccc2Cl)o1 | inconclusive [inhibitor, partial curve] | –
14 | CN(Cc1ccccc1)C(=O)COC(=O)c1ccc(Cl)c(N)c1 | inconclusive [inhibitor, partial curve] | –
15 | NC(=O)CSc1nnc(-c2ccc(S(=O)(=O)N3CCOCC3)cc2)n1Cc1ccccc1 | inconclusive [inhibitor, partial curve] | –
16 | COC(=O)CSc1nc(-c2ccc(C)cc2)c2c(c1C#N)CCCC2 | inconclusive [inhibitor, partial curve] | –
17 | CCCn1c(-c2ccc(F)cc2)nc2c(NC3CC4CCC(C3)N4C)nc(C)nc21 (stereo not given) | inconclusive [inhibitor, partial curve] | –
18 | CCCC(=O)Nc1nc2ccc(OC)cc2s1 | – | inactive: -17.6%
19 | COc1ccc(CCNC(=O)c2cc(-c3cc(C)ccc3O)n[nH]2)cc1OC | active: 3.98 µM | –
20 | CCOc1ccc(Oc2c(/C=N/NC(=O)COc3ccccc3OC)c(C)nn2-c2ccccc2)cc1 | – | inactive: -2.78%
